Data as given in paper PMC4336329 (PLoS ONE, 2015).
The campaign covered roughly 310,000 compounds. About 14,000 (4.5%) showed an effect of 50% or more. Effects have a minus sign here. This is one part of the list.

Target: human ether-à-go-go-related gene (hERG) potassium channel (human, UniProt Q12809)
Test: primary screen, population patch clamp on CHO cells stably expressing hERG
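Note: peak tail current of the secondary pulse compared with the same well before compound.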

Chain of human ether-à-go-go-related gene (hERG) potassium channel (Q12809 whole entry, looked up): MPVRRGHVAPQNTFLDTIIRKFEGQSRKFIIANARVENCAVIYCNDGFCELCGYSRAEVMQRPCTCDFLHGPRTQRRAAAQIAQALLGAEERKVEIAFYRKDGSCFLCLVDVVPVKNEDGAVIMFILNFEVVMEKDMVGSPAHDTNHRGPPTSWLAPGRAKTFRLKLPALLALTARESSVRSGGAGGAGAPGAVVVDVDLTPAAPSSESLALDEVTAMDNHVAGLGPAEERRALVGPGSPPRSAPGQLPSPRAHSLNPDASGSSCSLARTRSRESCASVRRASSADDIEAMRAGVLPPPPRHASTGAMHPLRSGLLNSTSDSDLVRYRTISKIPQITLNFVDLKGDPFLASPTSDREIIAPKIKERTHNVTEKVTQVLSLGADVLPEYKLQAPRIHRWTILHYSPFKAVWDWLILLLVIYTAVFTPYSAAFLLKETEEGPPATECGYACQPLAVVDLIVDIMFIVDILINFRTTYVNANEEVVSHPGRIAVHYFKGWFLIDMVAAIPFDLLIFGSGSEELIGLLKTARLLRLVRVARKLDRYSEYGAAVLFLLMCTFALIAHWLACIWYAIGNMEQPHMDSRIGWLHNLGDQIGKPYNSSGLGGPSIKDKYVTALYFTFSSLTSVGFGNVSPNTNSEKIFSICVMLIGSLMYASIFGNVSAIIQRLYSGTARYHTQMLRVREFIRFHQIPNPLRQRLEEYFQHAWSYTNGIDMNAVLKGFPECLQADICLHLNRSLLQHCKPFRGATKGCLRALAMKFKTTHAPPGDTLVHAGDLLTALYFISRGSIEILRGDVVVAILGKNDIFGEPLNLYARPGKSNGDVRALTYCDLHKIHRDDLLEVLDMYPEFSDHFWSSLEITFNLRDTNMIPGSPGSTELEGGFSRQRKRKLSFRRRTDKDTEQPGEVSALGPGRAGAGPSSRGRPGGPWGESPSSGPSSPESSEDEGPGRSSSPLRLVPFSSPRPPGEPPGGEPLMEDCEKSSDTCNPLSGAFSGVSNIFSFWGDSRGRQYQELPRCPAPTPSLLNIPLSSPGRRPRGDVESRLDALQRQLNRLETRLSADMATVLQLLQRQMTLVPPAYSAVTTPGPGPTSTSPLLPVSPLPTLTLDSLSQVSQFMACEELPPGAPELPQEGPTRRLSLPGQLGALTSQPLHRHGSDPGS

SMILES | hERG current change (%, negative = inhibition) at 10uM [%]
Cc1nn(CC(=O)NC(=O)NC2CCCCC2C)c(=O)c(C#N)c1C (stereo not shown) | -2.19
CCOC(=O)C1(Cc2ccccc2Cl)CCN(Cc2csc(C(C)=O)c2)CC1 | -12.3
CCOC(=O)c1sc(C)c(C(N)=O)c1NC1=NCCCCC1 | -14.6
COc1ccc(CN2C(=O)c3ccccc3C2=O)cc1C(=O)OC(C)C(=O)NC(N)=O (stereo not shown) | 26.5
CCC(C)[C@H](NC(=O)[C@@H]1CSC2c3ccccc3C(=O)N21)C(=O)NC1CCCC1 (stereo partly shown) | 1.57
COc1ccccc1CNC(=O)CSc1ncc(C(=O)Nc2ccccc2)c(=O)n1C | -12.8
COc1ccc(/C=C/CN2CCC(CO)(Cc3ccccc3Cl)CC2)cc1 | -79.6
CCCOc1ccc(C2NC(=O)CCC2[N+](=O)[O-])cc1 (stereo not shown) | 11.5
Cc1ccc(S(=O)(=O)Nc2cccc(C(=O)NCC(c3ccco3)N3CCCCC3)c2)cc1F (stereo not shown) | -48.4
C=C(C)C1CC=C(CN2CCC(O)CC2)CC1 (stereo not shown) | -6.28
COCCCNC(=O)CCc1nc2cccnc2n1Cc1ccccc1 | -29.8
CCC(CC)C(=O)Nc1cccc(C(=O)Nc2ccc(S(=O)(=O)Nc3ccc(C)cc3)cc2)c1 | -4.7
CCCNS(=O)(=O)c1ccc(OCC(=O)NCc2ccc3c(c2)OCO3)cc1 | -23.8
O=C(CN1C(=O)NC2(CCCCCC2)C1=O)c1ccccc1 | 1.83
CCOc1ccccc1NC(=O)CN1CCC(NC(=O)Nc2ccccc2)CC1 | -38.8
COc1cc(O)cc2cc3c(c(O)c12)C(=O)CC(C)(O)O3 (stereo not shown) | 2.71
CC(C)(C)C(=O)CN1C(=O)C2(OCCO2)c2ccccc21 | 5.03
CCOC(=O)C1=C(CC)OC(N)=C(C#N)C1c1cc(OC)ccc1OC (stereo not shown) | 6.37
COc1cccc(CC(=O)Nc2ccc(S(=O)(=O)Nc3nc(C)cc(C)n3)cc2)c1 | 10.2
COc1ccc(-c2cc(C(=O)Nc3ccc(F)cc3F)no2)cc1 | 8.61
CC1=C(C(=O)OC(C)C)C(c2cccnc2)n2ncnc2N1 (stereo not shown) | 10.6
O=C(COc1ncnc2ccccc12)NCCC1=CCCCC1 | -3.61

SMILES | hERG current change (%, negative = inhibition) at 10uM [%]
CC1(C)Cc2c(c(N3CCOCC3)nc3sc(C(=O)N4CCCCC4)c(N)c23)CO1 | 7.18
CCOC(=O)N1CCC(NC(=O)c2ccc(CO)c(C(=O)NC3CCN(C(=O)OCC)CC3)c2)CC1 | 22
Cc1ccc(-c2csc(NC(=O)c3ccco3)n2)cc1C | -15.6
O=C(NO)c1ccccc1C(F)(F)F | 15.4
CC1CN(C(=O)c2ccc(-c3cccc(C(F)(F)F)c3)o2)CC(C)O1 (stereo not shown) | -43.7
C=CCn1c(C(C)NC(=O)c2ccccc2)n[nH]c1=S (stereo not shown) | -8.54
COc1ccc(/C=C2\SC(=S)N(CCC(=O)Nc3ccc(O)cc3)C2=O)cc1 | 10.1
O=C(NNC(=O)c1sccc1-n1cccc1)Nc1ccccc1 | 39.7
Cc1nc2ccc(N=NC3=C(O)CC(C)(C)CC3=O)cc2s1 | -15.8
CCOc1cc(C(=O)N2CCCN(C)CC2)cc(OCC)c1OCC | 14.8
COC(=O)Cc1ccc(NC(=S)NCCSc2ccc(C)cc2)cc1 | -2.66
O=C(Nc1nccs1)c1ccc(S(=O)(=O)N2CCOCC2)cc1 | -3.44
CCN(CC)S(=O)(=O)c1cccc(-c2n[nH]c(=S)n2C)c1 | -51.8
Cc1ccc(S(=O)(=O)NCCC(=O)Nc2ccc(S(=O)(=O)NC(C)C)cc2)cc1 | 8.45
CCn1c(CC(=O)Nc2ccccc2C)nnc1SCC(=O)NC1=NCCS1 | 26
O/N=C\c1ccccc1Oc1ccc(F)cc1 | 12.8
Cc1cc(C(=O)N2CCN(c3ccc([N+](=O)[O-])cc3)CC2)co1 | -75.5
Cc1ccc(C)c(N2N=C(C(=O)Nc3ccccc3N3CCOCC3)CCC2=O)c1 | -39.7
O=C1CCN(Cc2ccc(Cl)cc2)N1 | 10.8
CCc1ccc(S(=O)(=O)/N=C2\C=C(Nc3cccc(C(=O)O)c3)C(=O)c3ccccc32)cc1 | 24.1
CCCCOC(=O)c1ccc(NC(=S)NC(=O)c2c(Br)c(C)nn2C)cc1 | 22.3
CCN(CC)S(=O)(=O)c1ccc(N2CCc3cc(OC)c(OC)cc3C2)nc1 | -24.1

SMILES | hERG current change (%, negative = inhibition) at 10uM [%]
O=C1SCCC1NS(=O)(=O)c1ccc([N+](=O)[O-])cc1 (stereo not shown) | -40.2
O=C(Nc1ccccc1Sc1ccccc1)c1ccccc1F | -0.719
Cc1cc(=O)[nH]c(SCC(=O)N2CCCc3ccccc32)n1 | -12
O=C(CSCc1ccc(Cl)cc1)c1ccco1 | -13.6
CCCOc1ccc(-c2csc3nc[nH]c(=O)c23)cc1 | -2.62
O=C(NCc1ccc(F)cc1)c1c2c(nc3ccccc13)CCN(Cc1ccccc1)C2 | -22.2
CN1CCN(/N=C/c2nc(-c3ccccc3)n3ccccc23)CC1 | -19.9
O=C(Nc1cccc(-c2nc3ccccc3[nH]2)c1)c1ccc(C(=O)Nc2cccc(-c3nc4ccccc4[nH]3)c2)cc1 | 12.5
CC1(C)OC(=O)C(=CNCC(=O)NCC(=O)O)C(=O)O1 | 9.9
Nc1ccccc1C(=O)N/N=C1/C2CN3CCN(C2)CC1(Cc1ccccc1)C3 | -37.8
Cc1nn(C)cc1CNC(=O)Nc1ccc(Cl)cc1 | -16.6
COc1cccc(C2=Nc3cccc4cccc(c34)N2)c1 | -13.3
O=C(c1ccccc1)c1ccc(OCC(O)CN2CCCCC2)cc1 (stereo not shown) | -39.9
CCN(CC(=O)NC1CCS(=O)(=O)C1)S(=O)(=O)c1ccccc1 (stereo not shown) | 7.7
COc1ccc(-n2cnnc2SCC(=O)N(C)C2CCS(=O)(=O)C2)cc1 (stereo not shown) | -9.09
O=C(c1ccc(Cl)c(S(=O)(=O)N2CCCCC2)c1)N1CCCCCC1 | -39.2
CCOC(=O)c1c(C#N)c(SCC(=O)Nc2ccc(OC)cc2)nc2c1CN(CC)CC2 | -8.78
Cc1ccc(N2C(=O)c3ccccc3C2=O)cc1Cl | -41.5
CC(=O)c1cccc(NC(=O)CN2CCN(S(=O)(=O)/C=C/c3ccccc3)CC2)c1 | -53.9
CCOC(=O)c1c(NC(=O)c2cccc(N3C(=O)CCC3=O)c2)sc2c1CCN(CC)C2.Cl | -31.5
O=C(CCN1CCN(Cc2ccccc2)CC1)NNC(=O)Nc1cccc(Cl)c1 | -47
O=C(Nc1nc2ccccc2[nH]1)c1ccc(Cl)c(S(=O)(=O)N2CCCC2)c1 | -9.28

SMILES | hERG current change (%, negative = inhibition) at 10uM [%]
CCCCCCNc1nc(OC)nc(N2CC3CC(C2)c2cccc(=O)n2C3)n1 (stereo not shown) | -27.9
Cc1cc(C)n2nc(SCC(=O)Nc3ccccc3F)nc2n1 | -20.1
CCOC(=O)C1(Cc2ccccc2)CCCN(Cc2ccc(OCCO)cc2)C1 (stereo not shown) | -1.04
O=C(c1ccc(=O)oc1)N1CCCc2ccccc21 | -0.216
Cc1ccc(-c2csc(NC(=O)c3ccc(Br)cc3)c2C(=O)O)cc1 | 46.9
CCCNC(=O)C(CC)NC(=O)c1cccc([N+](=O)[O-])c1 (stereo not shown) | 14.3
CCC(=O)NC(c1cccc([N+](=O)[O-])c1)c1c(O)ccc2ccccc12 (stereo not shown) | 18.2
CCOc1ccc(C(C)=O)cc1COC(=O)CNC(=O)c1cccs1 | -8.49
CC(C)CCn1c(Oc2ccccc2Cl)nc2c1c(=O)n(C)c(=O)n2C | -17.8
O=[N+]([O-])c1cccc(-c2ncc3ccccn23)c1 | -24.5
CC(=O)Nc1ccc(NC(=O)CSc2nnc3ccc(-c4ccc(F)cc4)nn23)cc1 | 16.8
S=C(c1cn(CCOc2ccccc2)c2ccccc12)N1CCCC1 | 10.6
COc1ccc(-n2nc(C(=O)NCC(=O)NCc3ccco3)c3ccccc3c2=O)cc1Cl | -6.17
CCOc1cc(S(=O)(=O)N2CC=C(c3ccc(F)cc3)CC2)c(OCC)cc1-n1cnnn1 | -33.8
Cc1cc(C)n(-c2ccc(C(=O)OCC(=O)Nc3ccc(Cl)c(S(=O)(=O)N(C)C)c3)cc2)n1 | -16.6
Cc1cccc(C(=O)O)c1[N+](=O)[O-] | 13.4
COc1ccc(C2=NN(C(=O)/C=C/c3ccccc3)C(c3ccccc3)C2)c(OC(C)=O)c1 (stereo not shown) | -9.5
CC1CCCC(N2CCN(C(=O)c3ccccc3F)CC2)C1 (stereo not shown) | -11.5
C#CCn1c(=NC(=O)c2cccs2)sc2cccc(OC)c21 | 18.3
CCc1cc2c(=O)n(CC(=O)NCCc3ccc(OC)c(OC)c3)cnc2s1 | 23.7
CC1=NOC2(C1)N(C)c1ccccc1C2(C)C (stereo not shown) | 4.94
COc1ccc(C(=O)Cc2cc(OC)c(OC)cc2[N+](=O)[O-])cc1 | 17
